Assay results: a collection of fitness landscapes (doi:10.1126/science.1257360)
This is one part of the list.

B1: PhoQ; a variant is named by its letters at X, in order, P23837 (parent)
chain: MKKLLRLFFPLSLRVRFLLATAAVVLVLSLAYGMVALIGYSVSFDKTTFRLLRGESNLFYTLAKWENNKLHVELPENIDKQSPTMTLIYDENGQLLWAQRDVPWLMKMIQPDWLKSNGFHEIEADVNDTSLLLSGDHSIQQQLQEVREDDDDAEMTHSVAVNVYPATSRMPKLTIVVVDTIPVELKSSYMVWSWFIYVLSANLLLVIPLLWVAAWWSLRPIEALAKEVRELEEHNRELLNPATTRELTSLVRNLNRLLKSERERYDKYRTTLTDLTHSLKTPLXXLQXXLRSLRSEKMSVSDAEPVMLEQISRISQQIGYYLHRASMRGGTLLSRELHPVAPLLDNLTSALNKVYQRKGVNISLDISPEISFVGEQNDFVEVMGNVLDNACKYCLEFVEISARQTDEHLYIVVEDDGPGIPLSKREVIFDRGQRVDTLRPGQGVGLAVAREITEQYEGKIVAGESMLGGARMEVIFGRQHSAPKDE

Variants of: B1
Experiment: enrichment ratio after two sorts for PhoP signalling (ratio (wild type AVST 3.29)); higher = more functional
Settings: with PhoP (E. coli)
For RDLH, the enrichment ratio was ≤ 0.25.
DKQD was tested, and the enrichment ratio was ≤ 0.25.
In the case of CRPC, the enrichment ratio is reported as ≤ 0.25.
KQFT was tested, and the enrichment ratio was ≤ 0.25.
With WMTF the enrichment ratio was ≤ 0.25.
QQPS was tested, and the enrichment ratio was ≤ 0.25.
With NVAG the enrichment ratio was ≤ 0.25.
For EDTQ, the enrichment ratio was ≤ 0.25.
In the case of NQTC, the enrichment ratio is reported as ≤ 0.25.
In the case of PCRS, the enrichment ratio is reported as ≤ 0.25.
PCTR was tested, and the enrichment ratio was ≤ 0.25.
In the case of FWQF, the enrichment ratio is reported as ≤ 0.25.
For KKPQ, the enrichment ratio was ≤ 0.25.
TDAT showed an enrichment ratio of 9.5.
With NRAH the enrichment ratio was ≤ 0.25.
ACFF was tested, and the enrichment ratio was ≤ 0.25.
For TWAS, the enrichment ratio was ≤ 0.25.
In the case of WLQF, the enrichment ratio is reported as ≤ 0.25.
In the case of LVKM, the enrichment ratio is reported as ≤ 0.25.
In the case of EDQL, the enrichment ratio is reported as ≤ 0.25.
WNQS was tested, and the enrichment ratio was ≤ 0.25.
With RCGP the enrichment ratio was ≤ 0.25.
With MDVG the enrichment ratio was ≤ 0.25.
NTRL was tested, and the enrichment ratio was ≤ 0.25.
With VVCT the enrichment ratio was ≤ 0.25.
DGMR was tested, and the enrichment ratio was ≤ 0.25.
ICHR was tested, and the enrichment ratio was ≤ 0.25.
AGMM was tested, and the enrichment ratio was 5.09.
In the case of HDWD, the enrichment ratio is reported as ≤ 0.25.
In the case of PHPC, the enrichment ratio is reported as ≤ 0.25.
In the case of RKEP, the enrichment ratio is reported as ≤ 0.25.
GLWA was tested, and the enrichment ratio was ≤ 0.25.
With WWCI the enrichment ratio was ≤ 0.25.
YGFH was tested, and the enrichment ratio was ≤ 0.25.
NWCQ was tested, and the enrichment ratio was ≤ 0.25.
WIII was tested, and the enrichment ratio was ≤ 0.25.
In the case of DHFD, the enrichment ratio is reported as ≤ 0.25.
TKDW was tested, and the enrichment ratio was ≤ 0.25.
HDSI was tested, and the enrichment ratio was ≤ 0.25.
For DHMY, the enrichment ratio was ≤ 0.25.
GWNS was tested, and the enrichment ratio was ≤ 0.25.
In the case of RQQC, the enrichment ratio is reported as ≤ 0.25.
With PNMG the enrichment ratio was ≤ 0.25.
In the case of QCLK, the enrichment ratio is reported as ≤ 0.25.
In the case of LNGP, the enrichment ratio is reported as ≤ 0.25.
In the case of HWPC, the enrichment ratio is reported as ≤ 0.25.
In the case of PDMQ, the enrichment ratio is reported as ≤ 0.25.
YFEA was tested, and the enrichment ratio was ≤ 0.25.
DAYG was tested, and the enrichment ratio was ≤ 0.25.
With IYFK the enrichment ratio was ≤ 0.25.
Variant GNCQ has an enrichment ratio of 12.1.
HNSY was tested, and the enrichment ratio was ≤ 0.25.
Variant FALK has an enrichment ratio of 2.57.
In the case of RSEL, the enrichment ratio is reported as ≤ 0.25.
With KTQI the enrichment ratio was ≤ 0.25.
For IPLS, the enrichment ratio was ≤ 0.25.
With PNRM the enrichment ratio was ≤ 0.25.
With ITNE the enrichment ratio was ≤ 0.25.
For FAPG, the enrichment ratio was ≤ 0.25.
In the case of GTFE, the enrichment ratio is reported as ≤ 0.25.
For LGWL, the enrichment ratio was 1.33.
MPFG was tested, and the enrichment ratio was ≤ 0.25.
In the case of TCMQ, the enrichment ratio is reported as 6.1.
For YPWT, the enrichment ratio was ≤ 0.25.
NAKN was tested, and the enrichment ratio was ≤ 0.25.
With QNRD the enrichment ratio was ≤ 0.25.
In the case of VKGV, the enrichment ratio is reported as ≤ 0.25.
In the case of MFYK, the enrichment ratio is reported as ≤ 0.25.
IARE was tested, and the enrichment ratio was ≤ 0.25.
STLA showed an enrichment ratio of 10.9.
With EVKN the enrichment ratio was ≤ 0.25.
In the case of WKNR, the enrichment ratio is reported as ≤ 0.25.
IGKC was tested, and the enrichment ratio was ≤ 0.25.
For PDIQ, the enrichment ratio was ≤ 0.25.
With HGPC the enrichment ratio was ≤ 0.25.
For VAMW, the enrichment ratio was ≤ 0.25.
Work on YEVS yielded an enrichment ratio of 0.342.
